Laboratory results published in publication PMC12040169 (PLOS Biology, 2025).
The other results are listed elsewhere or left out.

test system: T1, C. trachomatis L2/434/Bu expressing GFP (CTL2-GFP); design: species or system HeLa; C. trachomatis total inclusion area by high-content imaging, normalised to DMSO; conditions: total inclusion area; 28.5 h, 10 µM; inhibitor
T1 construct: L2/434/Bu GFP intracellular growth in HeLa cells
Outline: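 High-content images of fixed, Hoechst-stained infected cultures supply inclusion area and count (growth) plus nuclei number (viability), complementing bulk GFP/resorufin fluorescence. MIC determination is unchanged from the primary assay.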

Row | SMILES | % of control remaining
1 | Cc1ccccc1C1(O)CCN(CC(O)c2ccc3c(c2)CCC3)CC1 (stereo not drawn) [CBK286329] | 110.879
2 | O=C(Nc1ncc(-c2ccccc2)s1)c1csc([N+](=O)[O-])c1 [CBK298293] | 105.947
3 | COCCNC(=O)N1CCN(c2ccccc2)CC1 [CBK155181] | 88.0989
4 | O=C1NCCCC12CCN(Cc1cccc3ncccc13)CC2 [CBK285033] | 109.777
5 | CCOC(=O)N1CCN(Cc2ccc(OCC3CCCNC3)cc2)CC1 (stereo not drawn) [CBK307355] | 72.1966
6 | Cc1sc(NC(=S)NC(=O)c2ccco2)c(C(N)=O)c1C [CBK266272] | 131.872
7 | CN1CCC(N(C)C/C(Cl)=C/c2ccccc2)CC1 [CBK261903] | 95.1583
8 | CC(Nc1ncnc2c1cnn2C)c1ccccc1 (stereo not drawn) [CBK288093] | 62.4345
9 | Cc1ccc(-c2cccc(N3CCN(CCN4CCCC4)CC3)n2)cc1C [CBK037799] | 132.22
10 | Cc1nn(C)cc1-c1cncn1CC(C)N1CCC(C)CC1 (stereo not drawn) [CBK281789] | 87.649
11 | COC(=O)CCC(=O)NNC(=O)c1cccc(Br)c1 [CBK261606] | 112.879
12 | CCCCN1CCC2CN(CCCC(c3ccc(F)cc3)c3ccc(F)cc3)CCN2C1=O (stereo not drawn) [CBK024880C] | 53.5391
13 | COc1cc(C)c(CN2CCN(S(=O)(=O)c3cc(C(=O)O)cs3)CC2)cc1OC [CBK297093] | 78.0094
14 | CCC(CC)C(=O)Nc1nc(OC)cnc1-c1cccc(C(=O)N(C)C)c1 [CBK145392] | 90.6859
15 | Cc1ccc(CCSCC(=O)O)cn1 [CBK261072] | 98.0004
16 | COc1ccc(N2CCN(c3cc(-c4cc(C(F)(F)F)cc(C(F)(F)F)c4)ncn3)CC2)cc1OC [CBK091020] | 76.2888
17 | N#CCCn1cc(C(=O)N2CCCCC2)c(-c2ccccc2)n1 [CBK305931] | 28.9385
18 | O=C(Oc1cccc(NC(=O)c2ccco2)c1)c1cccc(S(=O)(=O)N2CCOCC2)c1 [CBK262272] | 86.4544
19 | COc1ccc([N+](=O)[O-])c(Oc2cccc(C(F)(F)F)c2)n1 [CBK002796] | 96.5952
20 | O=C(Nc1cccc(O)c1)c1ccc2c(c1)C(=O)N(c1cccc(N3C(=O)c4ccc(C(=O)Nc5cccc(O)c5)cc4C3=O)n1)C2=O [CBK261199] | 86.2147
21 | Cc1cc(C)n(-c2ccc3nnc(CCC(=O)O)n3n2)n1 [CBK307616] | 65.2436
22 | c1ccc(-c2cccc(-c3cc(N4CCN(CCN5CCCC5)CC4)ncn3)c2)cc1 [CBK091164] | 102.774
23 | CCOC(=O)C1CCN(C(=O)CCn2ccc3ccncc32)CC1 [CBK284720] | 112.055
24 | O=C(c1ccccc1F)N1CCN(C2CCN(Cc3ccccc3)CC2)CC1 [CBK263404] | 82.4238
25 | COc1ccc(C(=O)Nc2c(OC)cc(F)cc2OC2CCNCC2)cc1 [CBK050294T] | 49.8739
26 | COc1ccccc1CN(CCCN)C(=O)NC(C)c1ccccc1 (stereo not drawn) [CBK034667C] | 42.8834

Row | SMILES | % of control remaining
27 | CCOC(=O)c1sc(C)c(C(N)=O)c1/N=C1\CCCN1 [CBK020893] | 67.6109
28 | CC(C)C(=O)Nc1ccc(-c2csc(N3CCN(C)CC3)n2)cc1 [CBK304317C] | 62.1455
29 | CCC(Sc1nnc2c(n1)[nH]c1ccccc12)C(=O)Nc1sc2c(c1C#N)CCCC2 (stereo not drawn) [CBK263917] | 107.457
30 | CCN(CC)Cc1c(O)ccc2occ(C(=O)c3cc(OC)ccc3OC)c12 [CBK261949] | 92.3986
31 | CC(=O)c1ccc(NC(=O)N2Cc3nc[nH]c3C[C@H]2c2nc(-c3ccc(F)cc3)no2)cc1 [CBK288971] | 109.584
32 | COc1nccnc1OC1CCN(CC(=O)Nc2c(C)cccc2C)CC1 [CBK084249] | 90.1688
33 | O=C(CC[C@@H]1CNC(=O)[C@@H]2C[C@H](NC(=O)c3cccc(F)c3)CN12)Nc1ccccc1 [CBK289008] | 117.413
34 | Cn1ccc(C2=C(N)C(C#N)C3=C(CC(C)(C)CC3=O)O2)c1 (stereo not drawn) [CBK022168] | 54.8093
35 | CCN1CCCC1CNC(=O)C1(O)c2ccccc2NC(=O)N1c1ccccc1 (stereo not drawn) [CBK288554] | 82.2085
36 | c1ccc(Cn2c(-c3ccccc3)c(-c3ccccc3)c3c2ncn2nc(-c4cccnc4)nc32)cc1 [CBK265359] | 89.3374
37 | CCN(CC)CCN1C(=O)C(O)=C(C(=O)c2ccc3c(c2)OCO3)C1c1cccnc1 (stereo not drawn) [CBK266465] | 113.036
38 | CCOC(=O)c1cc(CC)sc1NC(=O)c1cc2ccccc2o1 [CBK267596] | 106.133
39 | COc1ccc(C(=O)Nc2ccc3oc(-c4cccc(C)c4)nc3c2)cc1Br [CBK261944] | 98.24
40 | O=S(=O)(NCC1CCCO1)c1cccs1 (stereo not drawn) [CBK044263] | 83.1359
41 | O=c1cc(CO)oc(CN2CCSCC2)c1O [CBK288404] | 100.531
42 | O=C(C1=C(O)C(=O)N(CCCN2CCOCC2)C1c1cccnc1)c1ccco1 (stereo not drawn) [CBK264528] | 114.651
43 | O=C(O)CCCn1cc(NC(=O)c2cccs2)cn1 [CBK270122] | 92.4061
44 | CCCc1cc(CNC(=O)c2cnn(-c3ccc(F)cc3)c2)on1 [CBK282463] | 133.957
45 | O=C(O)c1cccc(Sc2cc(N3CCCC3)ncn2)c1 [CBK093586] | 91.1699
46 | O=C1CC(C(=O)Nc2cccc(C(=O)O)c2)C(c2ccccc2)O1 (stereo not drawn) [CBK293968] | 126.13
47 | CC(C)CCOc1nccnc1-c1ccc2c(c1)OCO2 [CBK106711] | 102.598
48 | NC(=O)CN1CCC(Oc2cncc(OCC3COc4ccccc4O3)n2)C1 (stereo not drawn) [CBK084372] | 90.0567
49 | CC(C)c1nccn1CCCNC(=O)N1CCCC(c2ccncn2)C1 (stereo not drawn) [CBK307448] | 33.8944
50 | O=C(N[C@H]1C[C@H]2C(=O)NC[C@@H](CCC(=O)N3CCCCC3)N2C1)c1cccs1 [CBK289010] | 120.241
51 | Cn1nc(CC(=O)Nc2ccccc2C(=O)O)c2ccccc2c1=O [CBK286558] | 62.6341
52 | O=C(Cn1cnc2c(cnn2-c2cccc(Cl)c2)c1=O)N1CCCCC1 [CBK287691] | 89.4185

Row | SMILES | % of control remaining
53 | COc1ccc([C@@]23CC[C@@H](NC(=O)Nc4ccc(Cl)c(C(F)(F)F)c4)C[C@@H]2N(C)CC3)cc1OC [CBK038224C] | 59.2579
54 | COc1ccc([C@@]23CC[C@@H](NC(=O)Nc4ccccc4C#N)C[C@@H]2N(C)CC3)cc1OC [CBK047540T] | 51.4097
55 | O=C(c1cccnc1)N1C2CCC1CC(c1ccc(F)cc1)C2 (stereo not drawn) [CBK283762] | 82.9841
56 | COc1cc(NC(=O)c2nc[nH]n2)c(OC)cc1Cl [CBK288170] | 86.4576
57 | O=C(Cn1cnc2ccc(F)cc2c1=O)N1Cc2ccccc2C(c2ccccc2)C1 (stereo not drawn) [CBK296767] | 85.0576
58 | CC(=O)Nc1ccc(C(=O)Nc2ccc(S(=O)(=O)N3CCOCC3)cc2)cc1 [CBK264763] | 129.082
59 | Cc1ccc(S(=O)(=O)N(CC(=O)O)c2ccc(Br)cc2)cc1 [CBK287125] | 97.9148
60 | Cc1ccc2c(N)c(C(=O)Nc3ccc(C#N)cc3)sc2n1 [CBK115348] | 89.1603
61 | O=C(c1ccc(F)cc1)N1CCC(O)(c2ccccn2)CC1 [CBK283669] | 58.9499
62 | N#Cc1ccc(C(=O)N2CCC3(CC2)NC(=O)c2cc(-c4ccoc4)ccc2O3)cc1 [CBK115852] | 102.883
63 | Cn1ccc(C(=O)NC(Cc2ccsc2)c2ccccn2)cc1=O (stereo not drawn) [CBK285273] | 93.2864
64 | O=C(O)c1ccc(-c2ccc(/C=C3/NC(=O)N(c4ccc(Cl)cc4)C3=O)o2)cc1 [CBK077970] | 67.1934
65 | COc1ccc(-c2nc(NC(=O)Cc3ccccc3OC(F)(F)F)cnc2-c2cccc(C)c2)cc1 [CBK037551] | 129.669
66 | CC(C)CN(CC(N)=O)CC(=O)NC1(c2ccccc2)CCC1 [CBK066883T] | 98.5004
67 | COCc1nc(NCCn2c(C)cc(C)nc2=O)cc(C2CCOC2)n1 (stereo not drawn) [CBK307495] | 70.8798
68 | O=C(O)c1cc(-c2ccccc2)oc1CSCCO [CBK286559] | 87.9206
69 | CCCNC(=O)C[C@@H]1CCN(C(=O)c2ccnc(Cl)c2)C[C@@H]1CC [CBK289138] | 74.1237
70 | COc1ccc(-c2cnc(N)c(N3CCC[C@@H]3CO)n2)c(OC)c1OC [CBK063505] | 96.155
71 | NC(=O)CN1CCCN(c2ccnc(OCCN3CCOCC3)n2)CC1 [CBK083804] | 75.0723
72 | Cc1cccc(-c2nnn(CC(=O)O)n2)c1 [CBK068105] | 72.2993
73 | CCCc1cc(C(=O)N2CCN(C)C3(CCNC(=O)CC3)C2)ccn1 (stereo not drawn) [CBK306815] | 102.531
74 | Cc1cc(C)n(C2CCN(Cc3nc4ccccc4[nH]3)CC2)n1 [CBK281620] | 105.043
75 | O=C(NC(c1ccccc1)c1ccsc1)C1CCN(C2Cc3ccccc3C2)CC1 (stereo not drawn) [CBK148541] | 82.7616
76 | COc1ccc(NC(=O)N[C@@H]2C=C[C@@H](c3c(C)nn(CCC#N)c3C)C2)cc1 [CBK288804] | 99.8187
77 | COc1ccc(CC2CCCN2C(=O)Cn2cncn2)cc1 (stereo not drawn) [CBK306351] | 49.5945
78 | O=C(OCCN1CCOCC1)c1ccccc1I [CBK033860] | 90.4092
